The text below walks through data of paper PMC4336329 (PLoS ONE, 2015).

In all, about 310,000 compounds went through this assay and about 2,200 (0.71%) showed an effect of 50% or more. Effects have a minus sign here. This is one part of the list.

Chain of human ether-à-go-go-related gene (hERG) potassium channel (Q12809 whole entry, looked up): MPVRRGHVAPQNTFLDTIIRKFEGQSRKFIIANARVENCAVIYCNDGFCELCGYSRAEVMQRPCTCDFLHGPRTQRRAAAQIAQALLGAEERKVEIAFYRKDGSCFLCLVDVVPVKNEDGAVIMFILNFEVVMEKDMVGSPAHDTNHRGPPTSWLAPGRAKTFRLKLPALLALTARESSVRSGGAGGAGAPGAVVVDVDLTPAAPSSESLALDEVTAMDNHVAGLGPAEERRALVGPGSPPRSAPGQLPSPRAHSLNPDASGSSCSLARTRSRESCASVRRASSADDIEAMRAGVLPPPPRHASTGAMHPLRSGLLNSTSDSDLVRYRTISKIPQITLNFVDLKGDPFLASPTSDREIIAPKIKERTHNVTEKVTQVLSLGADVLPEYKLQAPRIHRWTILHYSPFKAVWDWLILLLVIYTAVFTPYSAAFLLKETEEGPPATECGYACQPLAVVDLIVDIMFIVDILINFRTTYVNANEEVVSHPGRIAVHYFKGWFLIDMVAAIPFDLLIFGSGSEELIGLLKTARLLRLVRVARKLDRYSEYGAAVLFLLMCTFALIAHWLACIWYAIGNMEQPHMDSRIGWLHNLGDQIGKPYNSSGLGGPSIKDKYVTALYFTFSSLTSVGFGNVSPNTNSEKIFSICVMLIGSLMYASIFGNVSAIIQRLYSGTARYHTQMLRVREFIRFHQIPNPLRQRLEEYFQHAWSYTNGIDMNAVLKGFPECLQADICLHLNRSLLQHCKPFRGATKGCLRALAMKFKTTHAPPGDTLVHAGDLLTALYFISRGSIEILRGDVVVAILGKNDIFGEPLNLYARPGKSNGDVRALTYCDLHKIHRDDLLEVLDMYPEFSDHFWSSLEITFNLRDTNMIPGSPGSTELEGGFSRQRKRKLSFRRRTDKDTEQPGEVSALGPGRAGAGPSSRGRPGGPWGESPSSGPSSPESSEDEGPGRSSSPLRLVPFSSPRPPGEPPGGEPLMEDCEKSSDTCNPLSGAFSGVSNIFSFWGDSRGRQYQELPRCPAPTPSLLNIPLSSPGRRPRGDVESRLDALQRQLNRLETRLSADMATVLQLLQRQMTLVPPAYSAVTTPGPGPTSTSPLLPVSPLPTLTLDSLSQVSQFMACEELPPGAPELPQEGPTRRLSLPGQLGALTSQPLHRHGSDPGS

This experiment addresses human ether-à-go-go-related gene (hERG) potassium channel (human, UniProt Q12809). Nature of the experiment: primary screen, population patch clamp on CHO cells stably expressing hERG.
Regarding `COc1ccc(C(CNC(=O)c2ccc(S(=O)(=O)Nc3ccccc3F)cc2)N(C)C)cc1` (stereo not shown), the “hERG current change (%, negative = inhibition) at 1uM” value came to 19.7%. The same measure for `Cc1[nH]n(-c2ccccc2)c(=O)c1S(=O)(=O)c1ccccc1`: -0.0408%; for `COc1ccc(Cl)cc1N1CC(C(=O)Nc2nccs2)CC1=O` (stereo not shown): 5.55%. The result for `CCc1nc2ccccc2n1CC(=O)OCC(=O)N(CC(C)C)c1c(N)n(Cc2ccccc2)c(=O)[nH]c1=O` reads 0.13%; that for `COc1ccc(-c2nsc(SCC(=O)NCc3ccc4c(c3)OCO4)n2)cc1`, 12.6%; that for `O=C(OCc1cc(=O)n2ccsc2n1)C1(c2ccc(Cl)cc2)CC1`, -0.103%. The same measure for `Cc1ccc2c(COC(=O)c3c(C)noc3C)cc(=O)oc2c1`: -3.33%; for `COc1ccc(Cc2noc(CN3CCCN(Cc4ccc(F)cc4)CC3)n2)cc1OC`: -15.2%; for `O=C1NC(=O)/C(=C/c2ccccc2OCc2ccccc2)S1`: 14.8%. Take `CNCc1cc(Br)c(OCC(=O)Nc2ccccc2OC)c(OC)c1.Cl`: the “hERG current change (%, negative = inhibition) at 1uM” value was -4.94%. The same measure for `CCOC(=O)c1c(NC(=O)CSc2nnnn2C)sc(C)c1-c1ccc(C)cc1`: -0.63%; for `COC(=O)CSc1nc2cc3c(cc2cc1C)OCCO3`: 16.6%; for `Cc1cc2c(cc1C)-c1nnc(-c3ccc4ccccc4n3)n1C(C)(C)C2`: 7.42%. Regarding `O=C(NCCc1ccccc1)c1cccc2c1C(=O)N(C1CCCCC1)C2`, the “hERG current change (%, negative = inhibition) at 1uM” value worked out at 12.9%. In the case of `Cc1cc(C)cc(N(CC(=O)NC2CCCC2)C(=O)c2csnn2)c1`, the “hERG current change (%, negative = inhibition) at 1uM” value is 11.3%.

For the compound `CCCCn1c(N)c(N(CCOC)C(=O)COC(=O)Cc2cccc(OC)c2)c(=O)[nH]c1=O`, the “hERG current change (%, negative = inhibition) at 1uM” value is -5.81%. The result for `O=C(CN1C(=O)/C(=C\c2ccc(F)cc2)Oc2ccccc21)N1CCN(c2ccccn2)CC1` reads -4.25%; that for `CCn1c(C)c(C(C)=O)c(N2CCN(c3ccccn3)CC2)nc1=S`, -0.742%; that for `CCn1c(=O)c(CCC(=O)NCC2CCCO2)c(C)c2c(C)nn(-c3ccccc3)c21` (stereo not shown), 11.9%. The result for `COCCNC(=O)c1cc2cc(Cl)cc(Cl)c2oc1=O` reads 9.36%; that for `Cc1cccc(C)c1OCc1nnc(SCC(=O)Nc2cccc(C(=O)N3CCOCC3)c2)n1C`, 7%. Regarding `O=C(NCc1ccccn1)c1ccccc1Cl`, the “hERG current change (%, negative = inhibition) at 1uM” value came to 2.33%. The result for `CCOC(=O)C1CCN(C(=O)c2ccc(SC)cc2OC)CC1` reads 1.63%; that for `CN(c1ccccc1)S(=O)(=O)c1ccc(C(=O)OCC(=O)NC(N)=O)cc1`, 14.1%; that for `Cc1ccc(S(=O)(=O)CCC(=O)Nc2nnc(CC(C)C)s2)cc1`, -0.707%. The result for `O=C(OCc1ccccc1)/C(=C(\O)c1ccccc1Br)c1ccc(-c2ccccc2)cn1` reads 2.98%; that for `CSc1nnc(-c2cnccn2)n1Cc1ccccc1`, 14.2%. The same measure for `Cc1nn(Cc2ccccc2)c(Cl)c1C(=O)O`: 19%; for `Cn1c(=O)oc2cc(S(=O)(=O)Nc3ccccc3O)ccc21`: 11.1%. For the compound `O=C(Cn1nnc(-c2ccc(S(=O)(=O)N3CCCC3)cc2)n1)NCC1CCCO1` (stereo not shown), the “hERG current change (%, negative = inhibition) at 1uM” value is 5.24%. The result for `NC(=O)C1CCCN(CC(=O)N2CCN(c3ccccc3)CC2)C1` (stereo not shown) reads 7.12%; that for `COc1ccc(F)cc1S(=O)(=O)n1cc(C)nc1-c1ccccc1`, 8.52%; that for `COc1ccc(C=C2C(=O)c3ccccc3C2=O)cc1O`, 11.8%.

On to `CC1CC(C)(C)NC(=S)N1CC(=O)N1CCN(Cc2ccc3c(c2)OCO3)CC1` (stereo not shown), for which the “hERG current change (%, negative = inhibition) at 1uM” value is on record as 10.7%. The same measure for `Cc1ccccc1NS(=O)(=O)c1cc(C(N)=O)ccc1C`: 9.26%. The result for `O=c1[nH]c(=O)n(Cc2ccco2)c(O)c1C=NCc1ccco1` reads 8.27%; that for `OCC1CCCN(Cc2ccc(-c3ccccc3)cc2)C1` (stereo not shown), 1.59%. In the case of `COc1cc(NC(=O)c2cc(C)nc3ccccc23)cc(OC)c1`, the “hERG current change (%, negative = inhibition) at 1uM” value was determined as 11.6%. The result for `O=C(O)CCCn1cc(NC(=O)c2c(F)cccc2F)cn1` reads 11.9%; that for `CC1Cc2ccccc2N1C(=O)COC(=O)C1(c2ccccc2F)CCCC1` (stereo not shown), -0.43%. The result for `CC(C)(C)NC(=O)CN1CCN(C(=O)CCl)CC1.Cl` reads 13.6%; that for `CN(C(=O)CCN1C(=O)C2C3C=CC(C3)C2C1=O)c1ccccc1` (stereo not shown), 4.4%. Consider `CN1CCN(c2ccccc2NC(=O)C(Cc2ccccc2)n2cccc2)CC1` (stereo not shown), for which the “hERG current change (%, negative = inhibition) at 1uM” value is on record as -26.5%. The same measure for `COc1cccc(-c2nc(-c3ccc(C(=O)O)cc3)no2)c1`: 3.03%. The result for `O=C(CSc1nc2ncccc2[nH]1)Nc1ccc2c(c1)OCO2` reads 15.5%; that for `CCOc1ccc(CCNC(=O)CCNC(=O)c2ccccc2Cl)cc1OCC`, 15.6%. The result for `COCCN1CCN(C(=O)c2ccc3nc(Cc4ccc(OC)c(OC)c4)oc3c2)CC1` reads 8.43%; that for `N=c1c(C(=O)NCc2ccc(F)cc2)cc2c(=O)n3ccccc3nc2n1Cc1ccco1`, -85%; that for `Cc1cc(C)n(CC(O)Cn2c3ccc(Cl)cc3c3cc(Cl)ccc32)c(=O)n1` (stereo not shown), 11.6%. Regarding `O=[N+]([O-])c1ccc(N2CCN(c3ccc(F)cc3)CC2)cn1`, the “hERG current change (%, negative = inhibition) at 1uM” value is recorded as -3.93%. The same measure for `CN(CC(=O)Nc1ccc(Cl)c(C(F)(F)F)c1)C(=O)Cc1n[nH]c(=O)c2ccccc12`: -1.77%.

For the compound `O=C(N/N=C/c1cccs1)c1cc(-c2ccc(Cl)s2)[nH]n1`, the “hERG current change (%, negative = inhibition) at 1uM” value worked out at 13.4%.

Turning to `CCCCn1c(=O)cc(C)n(-c2ccccc2)c1=O`, the “hERG current change (%, negative = inhibition) at 1uM” value was found to be 10.5%. The result for `Cc1ccc(CCNC(=O)C2CCC(=O)N2C2CCCC2)cc1` (stereo not shown) reads 7.19%; that for `CCOC(=O)NC(=S)Nc1cccc(NC(=S)NC(=O)OCC)c1`, 12.3%; that for `CC(=O)Nc1ccc(C(=O)N/N=C/c2ccc(F)cc2)cc1`, -4.54%.

Regarding `COC(=O)[C@@H](NC(=O)N1CCN(C(=O)C2COc3ccccc3O2)CC1)C(C)C` (stereo partly shown), the “hERG current change (%, negative = inhibition) at 1uM” value is 6.31%.

For the compound `CCOc1ccc(-c2cc(NC(=O)Cn3ncc4c3-c3ccccc3OC4)on2)cc1OCC`, the “hERG current change (%, negative = inhibition) at 1uM” value was determined as 18.6%. With `CC(=O)NC(CC(=O)NC12CC3CC(CC(C3)C1)C2)c1ccccc1` (stereo not shown), the “hERG current change (%, negative = inhibition) at 1uM” value was found to be 7.87%. The same measure for `Oc1ccc(Nc2nc(-c3cccs3)cs2)cc1`: 4.08%. The result for `COc1cc2c(CCNC(C)=O)c[nH]c2cc1Cl` reads 12.4%; that for `COc1ccc(CCNc2oc(COc3ccccc3F)nc2C#N)cc1OC`, 12.5%.

For `O=C(Cn1ncc2c1-c1ccccc1OC2)Nc1ccc(S(=O)(=O)N2CCCCC2)cc1`, the “hERG current change (%, negative = inhibition) at 1uM” value amounted to 14%. The same measure for `Cc1ccc(CNC(=O)C(=O)c2cn(CC(=O)N3CCOCC3)c3ccccc23)cc1`: 7.29%. The result for `CCN(CC)CCCNC1=C(Cl)C(=O)c2ccccc2C1=O` reads -0.29%; that for `O=C(NCc1ccccn1)c1cccc([N+](=O)[O-])c1`, 4.66%; that for `CCc1sc(C(=O)NC(C)C2CCCO2)cc1Br` (stereo not shown), 4.86%. The result for `Cc1ccc(N2C(=O)C3C4C=CC(C4)C3C2=O)cc1C` (stereo not shown) reads 11.7%. `CC(Cc1ccccc1)NCC(=O)Nc1cc(N(C)C)nc2ccccc12.O=C(O)C(=O)O` (stereo not shown): the “hERG current change (%, negative = inhibition) at 1uM” value was -73.5%.

In the case of `CCN(CC)CCN1C(=O)C(=O)/C(=C(/O)c2cccc(OC)c2)C1c1ccccn1` (stereo not shown), the “hERG current change (%, negative = inhibition) at 1uM” value was found to be 8.19%.

Consider `CCNC(=O)CC1C(=O)N(c2ccccc2)C(=O)N1CCc1ccc(OC)cc1` (stereo not shown), for which the “hERG current change (%, negative = inhibition) at 1uM” value was -2.06%.

As for `CC(=O)Nc1ccc(SC[C@H](Cc2ccccc2)N2CC[C@@H](O)CCC2=O)cc1`, the “hERG current change (%, negative = inhibition) at 1uM” value is given as 5.62%.

On to `O=Cc1ccccc1-n1cncn1`, for which the “hERG current change (%, negative = inhibition) at 1uM” value is on record as 8.15%. With `COc1ccc([N+](=O)[O-])cc1N(CC(=O)NCCC1=CCCCC1)S(C)(=O)=O`, the “hERG current change (%, negative = inhibition) at 1uM” value is 8.48%.

Consider `NNC(=O)c1nc[nH]c1C(=O)Nc1ccc(Cl)cc1C(=O)c1ccccc1`, for which the “hERG current change (%, negative = inhibition) at 1uM” value was 18.5%. The result for `Cc1cc(C(=O)CSc2n[nH]c(N)n2)c(C)n1-c1cc(F)ccc1F` reads 8.95%; that for `COc1ccc(Cc2nnc(NS(=O)(=O)Cc3ccccc3)s2)cc1`, 12.2%; that for `CCCn1cc(S(=O)(=O)CC(=O)Nc2ccc(OC)cc2OC)c2ccccc21`, 3.17%.

For the compound `CC(=O)C1C(c2ccc([N+](=O)[O-])cc2)C2C(C)=NN=C2CC1(C)O` (stereo not shown), the “hERG current change (%, negative = inhibition) at 1uM” value stood at 8.33%. The result for `CC(=O)C1=C(C)Nc2ncnn2C1c1ccc(O)cc1` (stereo not shown) reads 11.5%. The result for `COc1ccc2cc(C#N)c(NC(C)C)nc2c1` reads 20.5%.

For the compound `CC(C)c1ccc(-c2nnn(CCC(=O)O)n2)cc1`, the “hERG current change (%, negative = inhibition) at 1uM” value was 7.5%. The same measure for `Cc1ccc(CN2CCN(Cc3cc4ccccc4o3)CC2CCO)cc1` (stereo not shown): -12.5%; for `O=C1SC(SCc2ccccc2)=N/C1=C\c1ccco1`: 5.9%; for `O=C(O)CSCCOc1ccc(OCCSCC(=O)O)cc1`: 6.56%.

As to `O=C(c1ccc(S(=O)(=O)N2CCCCCC2)cc1)N1CCC(CN2C(=O)c3cccc4cccc(c34)C2=O)CC1`, the “hERG current change (%, negative = inhibition) at 1uM” value is listed as 6.64%.

For `Cc1ccc(C2/C(=C(\O)c3cnn(-c4ccccc4)c3C)C(=O)C(=O)N2CCN(C)C)o1` (stereo not shown), the “hERG current change (%, negative = inhibition) at 1uM” value amounted to 7.54%. The same measure for `COC(=O)c1ccccc1NC(=S)N(Cc1ccc2c(c1)OCO2)Cc1cc2ccc(OC)cc2[nH]c1=O`: -1.8%.
